Assay results: the supplement of paper PMC10126150
Values marked as one replicate rest on one cluster of the flow cell; about a third of the high ones do not repeat.
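Further: ATP exposure 15 min at 22 °C before imaging.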

Each sequence was assayed on ATP (assay: switch fluorescence ratio, 500 uM ATP over buffer (Cy3 cluster intensity, sum of 5 cycles each) (fold (ratio)); higher = stronger signal-on switching upon ATP binding; sequences stand for … in TCGTCGGCAGCGTCAGATGTGTATAAGAGACAGTTTTTTTTTTTTTTTTTTTTTTTTT…TC). Settings: aptamer strand: ATP DNA aptamer (quencher-CACCTGGGGGAGTATTGCGGAGGAAGG + anchor), 100 nM annealed; ATP concentration: 500 uM; one replicate.
Outline: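 Switching-strand clusters labelled with Cy3 on a modified Illumina MiSeq flow-cell were annealed to 100 nM quencher-labelled ATP aptamer, imaged in selection buffer, and re-imaged after 15 min with 500 uM ATP at 22 °C. This was done over five cycles with NaOH stripping and re-annealing in between. The fluorescence ratio is summed target-cycle over summed buffer-cycle Cy3 intensity per cluster, averaged per switch-domain sequence, excluding clusters outside 100-1000 RFU.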
AAAAAACGCG gave a switch fluorescence ratio of 0.96.
Sequence AAAAAAGACA has a switch fluorescence ratio of 1.02.
For AAAAAAGCAC, the switch fluorescence ratio was 1.08.
AAAAAAGGCG was tested, and the switch fluorescence ratio was 0.993.
AAAAAAGGT was tested, and the switch fluorescence ratio was 0.985.
AAAAAAGTCA gave a switch fluorescence ratio of 1.02.
For AAAAACCCCG, the switch fluorescence ratio was 1.11.
AAAAACTAGG gave a switch fluorescence ratio of 1.01.
AAAAACTTAT showed a switch fluorescence ratio of 1.04.
AAAAACTTTA gave a switch fluorescence ratio of 0.996.
Sequence AAAAAGAACT has a switch fluorescence ratio of 0.96.
AAAAAGCCAT gave a switch fluorescence ratio of 1.14.
In the case of AAAAAGTAGC, the switch fluorescence ratio is reported as 1.04.
For AAAAATATT, the switch fluorescence ratio was 0.99.
AAAAATCGTC gave a switch fluorescence ratio of 0.986.
AAAAATGATC showed a switch fluorescence ratio of 0.97.
For AAAAATTAA, the switch fluorescence ratio was 0.994.
For AAAAATTCTC, the switch fluorescence ratio was 1.01.
For AAAACACCCG, the switch fluorescence ratio was 0.985.
For AAAACCTGCG, the switch fluorescence ratio was 1.22.
For AAAACGCAAC, the switch fluorescence ratio was 1.22.
Sequence AAAACGCGAT has a switch fluorescence ratio of 4.66.
Sequence AAAACGGCTG has a switch fluorescence ratio of 1.11.
AAAACGGGGC was tested, and the switch fluorescence ratio was 1.05.
With AAAACGTCAT the switch fluorescence ratio was 1.03.
With AAAACGTTG the switch fluorescence ratio was 1.04.
For AAAACGTTGA, the switch fluorescence ratio was 1.02.
AAAACTGGGT showed a switch fluorescence ratio of 1.06.
AAAACTGTGA was tested, and the switch fluorescence ratio was 1.04.
AAAACTTGCG was tested, and the switch fluorescence ratio was 1.03.
Sequence AAAAGAAAG has a switch fluorescence ratio of 0.951.
Work on AAAAGAAGGG yielded a switch fluorescence ratio of 1.04.
Sequence AAAAGACCGG has a switch fluorescence ratio of 0.917.
AAAAGACGCG showed a switch fluorescence ratio of 1.11.
AAAAGAGGCT gave a switch fluorescence ratio of 1.04.
For AAAAGCAGAT, the switch fluorescence ratio was 0.999.
AAAAGCATCC gave a switch fluorescence ratio of 1.17.
With AAAAGCCCGC the switch fluorescence ratio was 1.12.
Sequence AAAAGCGATA has a switch fluorescence ratio of 1.1.
With AAAAGCGGTT the switch fluorescence ratio was 0.971.
For AAAAGGCAGT, the switch fluorescence ratio was 0.976.
Work on AAAAGGCTCA yielded a switch fluorescence ratio of 1.04.
With AAAAGGGTAA the switch fluorescence ratio was 0.983.
AAAAGTAGCG showed a switch fluorescence ratio of 1.11.
AAAAGTATCC was tested, and the switch fluorescence ratio was 1.14.
Sequence AAAAGTATGT has a switch fluorescence ratio of 0.993.
Sequence AAAAGTCATT has a switch fluorescence ratio of 0.957.
Sequence AAAAGTTCAG has a switch fluorescence ratio of 0.943.
In the case of AAAATACCGA, the switch fluorescence ratio is reported as 1.03.
For AAAATCAGTT, the switch fluorescence ratio was 0.985.
AAAATCCAAG showed a switch fluorescence ratio of 1.03.
AAAATGAGAA gave a switch fluorescence ratio of 0.991.
AAAATGTATT showed a switch fluorescence ratio of 0.992.
With AAAATTTGAG the switch fluorescence ratio was 1.
Sequence AAACACCGCT has a switch fluorescence ratio of 1.13.
AAACACGTCG gave a switch fluorescence ratio of 1.02.
For AAACAGTTCA, the switch fluorescence ratio was 1.01.
AAACATCCAA was tested, and the switch fluorescence ratio was 1.02.
AAACATCGA showed a switch fluorescence ratio of 1.06.
With AAACCAGCGG the switch fluorescence ratio was 0.972.
Sequence AAACCAGGCC has a switch fluorescence ratio of 1.05.
AAACCATTTA gave a switch fluorescence ratio of 1.06.
AAACCCTATG gave a switch fluorescence ratio of 1.03.
AAACCGTTG was tested, and the switch fluorescence ratio was 1.03.
Sequence AAACCTACGA has a switch fluorescence ratio of 1.46.
AAACCTGCA was tested, and the switch fluorescence ratio was 2.7.
For AAACCTTGAG, the switch fluorescence ratio was 1.09.
AAACGAAAAT was tested, and the switch fluorescence ratio was 0.948.
In the case of AAACGCACT, the switch fluorescence ratio is reported as 1.83.
In the case of AAACGCAGGT, the switch fluorescence ratio is reported as 1.07.
In the case of AAACGCCGGG, the switch fluorescence ratio is reported as 1.06.
AAACGCGATT was tested, and the switch fluorescence ratio was 1.11.
AAACGGCGG showed a switch fluorescence ratio of 0.988.
Work on AAACGGGACT yielded a switch fluorescence ratio of 1.18.
With AAACGGTACG the switch fluorescence ratio was 1.01.
AAACGTAATC was tested, and the switch fluorescence ratio was 1.49.
With AAACTATAAA the switch fluorescence ratio was 0.989.
Work on AAACTATTAG yielded a switch fluorescence ratio of 1.02.
AAACTCCAGC gave a switch fluorescence ratio of 1.1.
In the case of AAACTCTCTT, the switch fluorescence ratio is reported as 1.02.
Work on AAACTGTGTA yielded a switch fluorescence ratio of 0.993.
Sequence AAACTGTTAC has a switch fluorescence ratio of 1.19.
Work on AAACTTCG yielded a switch fluorescence ratio of 1.1.
Sequence AAAGACACCG has a switch fluorescence ratio of 0.956.
Sequence AAAGACAGG has a switch fluorescence ratio of 0.998.
In the case of AAAGACAGTA, the switch fluorescence ratio is reported as 1.03.
With AAAGATACA the switch fluorescence ratio was 0.983.
In the case of AAAGATGCAT, the switch fluorescence ratio is reported as 0.992.
Sequence AAAGCCGGT has a switch fluorescence ratio of 1.03.
In the case of AAAGCGCTGT, the switch fluorescence ratio is reported as 0.987.
AAAGCGGAAG gave a switch fluorescence ratio of 0.983.
With AAAGCGTTG the switch fluorescence ratio was 1.04.
For AAAGCTCATA, the switch fluorescence ratio was 1.
For AAAGCTTCGT, the switch fluorescence ratio was 1.33.
For AAAGGACTGG, the switch fluorescence ratio was 1.02.
In the case of AAAGGAGCCA, the switch fluorescence ratio is reported as 0.979.
Sequence AAAGGCCCTG has a switch fluorescence ratio of 0.978.
Work on AAAGGCGCAC yielded a switch fluorescence ratio of 1.1.
For AAAGGCTTAG, the switch fluorescence ratio was 1.02.
For AAAGGGACTC, the switch fluorescence ratio was 1.02.
In the case of AAAGGGATCT, the switch fluorescence ratio is reported as 1.03.
With AAAGGGCT the switch fluorescence ratio was 0.976.
AAAGGGGCTT was tested, and the switch fluorescence ratio was 1.06.
AAAGGTAGC was tested, and the switch fluorescence ratio was 1.05.
AAAGGTGACG showed a switch fluorescence ratio of 1.06.
Work on AAAGGTTAGT yielded a switch fluorescence ratio of 1.01.
With AAAGTAGAAC the switch fluorescence ratio was 0.994.
AAAGTAGGAA was tested, and the switch fluorescence ratio was 0.987.
In the case of AAAGTTCTGC, the switch fluorescence ratio is reported as 0.97.
With AAAGTTGACA the switch fluorescence ratio was 1.05.
Sequence AAAGTTGCGC has a switch fluorescence ratio of 0.95.
AAAGTTTGAT was tested, and the switch fluorescence ratio was 1.
AAATAAAAAA showed a switch fluorescence ratio of 0.967.
Work on AAATAAAC yielded a switch fluorescence ratio of 0.998.
For AAATACACAA, the switch fluorescence ratio was 1.05.
AAATACATGC gave a switch fluorescence ratio of 1.03.
Work on AAATAGATCT yielded a switch fluorescence ratio of 0.999.
AAATAGGGA gave a switch fluorescence ratio of 0.979.
AAATAGTGCA was tested, and the switch fluorescence ratio was 0.976.
AAATATGGAG was tested, and the switch fluorescence ratio was 0.952.
Sequence AAATCAAGG has a switch fluorescence ratio of 0.971.
AAATCAAGTA showed a switch fluorescence ratio of 1.01.
AAATCAGACG gave a switch fluorescence ratio of 1.04.
In the case of AAATCGGCGC, the switch fluorescence ratio is reported as 0.993.
For AAATCTAATT, the switch fluorescence ratio was 0.962.
AAATCTCGGT showed a switch fluorescence ratio of 1.03.
With AAATCTGACT the switch fluorescence ratio was 1.23.
AAATCTTGGC showed a switch fluorescence ratio of 1.03.
AAATCTTTGC gave a switch fluorescence ratio of 1.01.
Work on AAATGAGATA yielded a switch fluorescence ratio of 1.
Work on AAATGAGTAT yielded a switch fluorescence ratio of 0.973.
For AAATGCAGCA, the switch fluorescence ratio was 1.03.
AAATGCAT showed a switch fluorescence ratio of 1.
AAATGGTGCA showed a switch fluorescence ratio of 1.01.
Sequence AAATGTGGCT has a switch fluorescence ratio of 0.978.
Work on AAATTACACA yielded a switch fluorescence ratio of 1.
AAATTAGACT was tested, and the switch fluorescence ratio was 0.997.
In the case of AAATTAGCTA, the switch fluorescence ratio is reported as 1.01.
In the case of AAATTCGGCA, the switch fluorescence ratio is reported as 1.04.
Work on AAATTGCAAT yielded a switch fluorescence ratio of 1.
AAATTGCCGA gave a switch fluorescence ratio of 1.01.
For AAATTGGCTG, the switch fluorescence ratio was 1.03.
Sequence AAATTGTAGT has a switch fluorescence ratio of 1.
For AAATTTTAAA, the switch fluorescence ratio was 1.02.
AACAAAATCC gave a switch fluorescence ratio of 1.16.
AACAAAATTG showed a switch fluorescence ratio of 1.07.
AACAAAGATA gave a switch fluorescence ratio of 1.04.
Work on AACAAATATT yielded a switch fluorescence ratio of 0.957.
AACAAGTGGT was tested, and the switch fluorescence ratio was 1.
Work on AACAATTTGA yielded a switch fluorescence ratio of 0.963.
Sequence AACACCAAAG has a switch fluorescence ratio of 1.04.
Work on AACACGCGGC yielded a switch fluorescence ratio of 1.09.
Sequence AACACTGCCA has a switch fluorescence ratio of 1.15.
AACACTTGGC was tested, and the switch fluorescence ratio was 1.09.
With AACAGAAAA the switch fluorescence ratio was 0.948.
Sequence AACAGCAACC has a switch fluorescence ratio of 1.53.
In the case of AACAGCGGTA, the switch fluorescence ratio is reported as 1.05.
AACAGGGTAC was tested, and the switch fluorescence ratio was 1.01.
AACAGGTGTC was tested, and the switch fluorescence ratio was 1.5.
In the case of AACATAACGC, the switch fluorescence ratio is reported as 1.11.
In the case of AACATATCAC, the switch fluorescence ratio is reported as 1.05.
AACATCAACT showed a switch fluorescence ratio of 1.06.
AACATCACA showed a switch fluorescence ratio of 1.16.
In the case of AACATCATAG, the switch fluorescence ratio is reported as 1.05.
In the case of AACATGATAG, the switch fluorescence ratio is reported as 1.
Work on AACATTCCAA yielded a switch fluorescence ratio of 1.04.
With AACCAACCTG the switch fluorescence ratio was 1.
AACCACAGGC showed a switch fluorescence ratio of 1.1.
AACCACAGGT showed a switch fluorescence ratio of 1.05.
Work on AACCACGCTC yielded a switch fluorescence ratio of 1.19.
AACCACGCTG was tested, and the switch fluorescence ratio was 0.985.
AACCAGGTGA showed a switch fluorescence ratio of 1.02.
AACCAGTAT gave a switch fluorescence ratio of 1.01.
Sequence AACCATTCGT has a switch fluorescence ratio of 1.01.
Sequence AACCCAAAAA has a switch fluorescence ratio of 0.948.
Work on AACCCGAAAG yielded a switch fluorescence ratio of 1.02.
AACCCTCAGG was tested, and the switch fluorescence ratio was 1.3.
AACCCTCGCT showed a switch fluorescence ratio of 1.12.
AACCGAGAGA was tested, and the switch fluorescence ratio was 1.03.
Sequence AACCGAGATT has a switch fluorescence ratio of 1.
AACCGAGTCT gave a switch fluorescence ratio of 1.17.
Sequence AACCGATGT has a switch fluorescence ratio of 0.989.
Work on AACCGGCTGA yielded a switch fluorescence ratio of 1.06.
With AACCGGGATA the switch fluorescence ratio was 1.36.
AACCGGGTTA showed a switch fluorescence ratio of 0.977.
In the case of AACCTCTCAC, the switch fluorescence ratio is reported as 1.22.
Sequence AACCTGATTC has a switch fluorescence ratio of 1.62.
Sequence AACCTTACTC has a switch fluorescence ratio of 2.54.
With AACCTTTTGA the switch fluorescence ratio was 1.2.
AACGAAACAT was tested, and the switch fluorescence ratio was 1.19.
For AACGAAGAGT, the switch fluorescence ratio was 0.95.
In the case of AACGACTGAT, the switch fluorescence ratio is reported as 1.03.
With AACGAGG the switch fluorescence ratio was 0.954.
With AACGATATA the switch fluorescence ratio was 1.06.
Sequence AACGATTATT has a switch fluorescence ratio of 1.03.
In the case of AACGATTCGT, the switch fluorescence ratio is reported as 1.
For AACGATTTAG, the switch fluorescence ratio was 0.967.
For AACGCAACAT, the switch fluorescence ratio was 1.93.
AACGCATCGT gave a switch fluorescence ratio of 0.985.
AACGCCGGGT was tested, and the switch fluorescence ratio was 1.02.
In the case of AACGCCGTT, the switch fluorescence ratio is reported as 0.97.
